Among all 360,000 compounds or so, about 7,500 (2.1%) were called active. This list was built around the results that the source calls inconclusive (neither active nor inactive); the mix of calls is not that of the screen. Calls come from the whole dose curve; as a rule, active = well fitted cell-killing curve with a large enough effect; inconclusive = small, poorly fitted or top-dose-only effect, or effect the other way, or another doubt; inactive = no such curve, though single readings can be large or run the other way. No potency is given beside an inconclusive call; the fits are too rough.
Experiment: qHTS for induction of synthetic lethality in tumor cells producing 2HG: qHTS for the HT-1080-IDH1KD cell line;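 for activity, negative = toxicity: 0% = DMSO wells and -100% = cell-free medium wells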
Details: HT-1080 IDH1 knockdown viability, ATP luminescence, 48 h; activity, negative = toxicity: at 46.1 µM (top of the series) unless noted
In short: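 After a 2 h attachment period, IDH1KD HT-1080 cells took pin-transferred compound for 48 h at 37 °C; ATP-based luminescence after 10 min room-temperature reagent incubation reported viability.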
Potency is the fitted concentration of half-maximal effect; tags give direction and shape of the fitted curve.

| Compound | Potency | activity, negative = toxicity |
| --- | --- | --- |
| Cc1cc(NCc2ccccn2)n2ncc(-c3ccccc3)c2n1 | inconclusive [cytotoxic, full curve, poor fit] |  |
| CCN1CCN(c2ncc(C(=O)Nc3ccccc3C(=O)OC)c3ccccc23)CC1 | inconclusive [cytotoxic, single point] |  |
| O=C(O)c1cccnc1SCCc1ccccc1 | inconclusive [cytotoxic, single point] |  |
| COc1ccc(-c2nnc(SCC(=O)Nc3ccccc3OC)o2)cc1 | inconclusive [cytotoxic, single point] |  |
| c1ccc(-c2cn3c(n2)-c2ccccc2C3)cc1 | inconclusive [cytotoxic, single point] |  |
| Cc1csc(NC(=O)c2cc(C)oc2C)n1 | inactive |  |
| COc1ccc(C)cc1NC(=O)c1ccc2c(=O)n3c(nc2c1)CCCCC3 | inconclusive [rising, single point] |  |
| CS(=O)(=O)Nc1nc2n(n1)C(c1ccccc1)CC(c1ccccc1)N2 (configuration not stated) | inactive |  |
| O=C(Nc1ccc(C(=O)NC2CCCCC2)cc1)c1cccnc1 | active: 18.4 µM |  |
| COc1ccc(F)cc1-c1cc(C(=O)NCc2ccc(C(F)(F)F)cc2)[nH]n1 | inconclusive [cytotoxic, single point] |  |
| CCn1cc(C(=O)OCC(=O)OC2CC(C)CCC2C(C)C)c(=O)c2ccc(C)nc21 (configuration not stated) | inconclusive [cytotoxic, single point] |  |
| Cc1cc(C)n2c(C)nnc2c1 | inconclusive [rising, partial curve] |  |
| C=CCNc1ncnc2c1ncn2[C@H]1CN(Cc2ccc(-c3ccccc3)cc2)C[C@@H](CO)O1 | inconclusive [cytotoxic, partial curve] |  |
| O=C(N/N=C/c1ccc(F)cc1)c1cc(-c2ccc3c(c2)OCO3)n[nH]1 | inconclusive [cytotoxic, single point] |  |
| CCOC(=O)C1(CC2CCCCO2)CCN(C(=O)Nc2ccccc2CC)CC1 (configuration not stated) | inconclusive [rising, single point] |  |
| Cc1cccc(Nc2nc(-c3cccs3)cs2)n1 | inactive |  |
| CC1CC1C(=O)N1CCN(S(=O)(=O)c2cc(C(F)(F)F)cc(C(F)(F)F)c2)CC1 (configuration not stated) | inactive |  |
| CC(C)c1ccc(CC(=O)N2CCC2(C)C(=O)NCc2cccc3ccccc23)cc1 (configuration not stated) | inconclusive [cytotoxic, single point] |  |
| Cc1ccc(N(CC2CO2)S(=O)(=O)c2ccc(C)cc2)cc1 (configuration not stated) | inactive |  |
| CCN(CC)CCNC(=S)NC(=O)c1cn(-c2ccccc2)nc1-c1ccc(OC)cc1 | inconclusive [cytotoxic, single point] |  |
| Cc1ccc(C)c(NC(=O)CCC(=O)N/N=C/c2cc([N+](=O)[O-])ccc2O)c1 | inconclusive [cytotoxic, single point] |  |
| O=C(Nc1ccc(S(=O)(=O)Nc2ccccc2)cc1)C1COc2ccccc2O1 (configuration not stated) | inconclusive [cytotoxic, single point] |  |
| O=C(Nc1ccc(Cl)cc1)C1Cc2c(-c3cccc(F)c3)ccnc2O1 (configuration not stated) | inconclusive [cytotoxic, single point] |  |
| O=S1(=O)CC(N2CCN(CCO)CC2)CN1Cc1cn(Cc2ccc(C(F)(F)F)cc2)nn1 (configuration not stated) | inactive |  |

| Compound | Potency | activity, negative = toxicity |
| --- | --- | --- |
| O=C(/C=C/c1ccccc1)NC(=S)N1CCSCC1 |  | inconclusive: 30.2% |
| O=c1nc(N2CCCC2)nc(N2CCCC2)[nH]1 | inactive |  |
| O=C(N/N=C/c1ccc2c(c1)OCO2)c1cc(-c2ccncc2)nc2ccccc12 | active: 2.59 µM |  |
| CCOC(=O)C1CCN(C(=O)c2cc(S(=O)(=O)N3CCOCC3)c(Cl)cc2Cl)CC1 | inactive |  |
| Cc1ccc(COCCN2CCN(S(=O)(=O)c3ccc(C)cc3)CCC2=O)cc1 | inactive |  |
| Cc1ccc(NC(=S)/N=C(\N)Nc2nc(C)c3cc(C)ccc3n2)c(C)c1 | inconclusive [cytotoxic, partial curve] |  |
| CCOC(=O)C1=C(COC(=O)C2CC(=O)N(c3ccc(CC)cc3)C2)NC(=O)NC1C (configuration not stated) | inactive |  |
| COC(=O)[C@@]12C[C@@H](CC(=O)N3CCN(C(=O)c4ccco4)CC3)C(=O)N(Cc3cccc4ccccc34)C1=CCC(C)(C)C2 | active: 20.6 µM |  |
| CCc1nc2ccc(C(=O)N3CCN(C(C)=O)CC3)cn2c1N(C=O)Cc1ccc(OC)cc1 | inconclusive [rising, single point] |  |
| CC(=O)N1CCc2cc(NC(=O)C3(C)CCN3CCc3ccccc3)ccc21 (configuration not stated) | inconclusive [cytotoxic, single point] |  |
| O=S(=O)(/N=S1\CC=CCN1S(=O)(=O)c1ccccc1)c1ccccc1 (configuration not stated) | inconclusive [cytotoxic, single point] |  |
| O=C(/C=C/c1ccc(Br)cc1)NC(=O)c1ccccc1O | inconclusive [cytotoxic, single point] |  |
| CC(=O)c1ccccc1OCC(O)CN1CCN(CCN2C(=O)c3cccc4cccc(c34)C2=O)CC1 (configuration not stated) | inconclusive [cytotoxic, single point] |  |
| CCC(C)NCCOCCOc1ccc(C)cc1Br (configuration not stated) | inconclusive [cytotoxic, single point] |  |
| CC(=O)N1C[C@H]2CON(C)[C@H]2C[C@H]1c1cccc(-c2cc(Cl)cc(Cl)c2)c1 | inactive |  |
| CC(Nc1nc(-c2ccc(F)cc2)cs1)c1nc2cc(Cl)c(N3CCCCC3)cc2n1CCCO (configuration not stated) | inconclusive [cytotoxic, single point] |  |
| Cc1cc(C)c2c(n1)SCC(=O)N2CC(=O)Nc1cc(F)ccc1F | inactive |  |
| CC/C(=N/NC(=O)c1ccc2c(c1)OCO2)c1ccccc1O | active: 23.1 µM |  |
| CCc1nc2ccc(C(=O)NC(C)(C)C)cn2c1N(CC)Cc1cccc(Br)c1 | inconclusive [cytotoxic, partial curve] |  |
| CC(CCc1ccccc1)NC(=O)CN1C(=O)NC2(CCCCC2C)C1=O (configuration not stated) | inactive |  |
| C=CCN(C(=O)CCC(=O)Nc1cc(C)on1)C(C(=O)NC1CCCC1)c1ccc(C)cc1 (configuration not stated) | inactive |  |
| CC1(C(=O)NCc2cccs2)Cc2c(-c3cccc(C(F)(F)F)c3)ccnc2O1 (configuration not stated) | active: 4.61 µM |  |
| C[C@@H]1C(c2cccc(Cl)c2)=NN(c2ccc(Br)cc2)[C@H]1C(=O)N1CCOC1=O | inconclusive [cytotoxic, single point] |  |
| Cc1ccc2c(=O)n3c(nc2c1)C(Cc1ccc(O)cc1)NC(=O)c1cc2ccccc2cc1-3 (configuration not stated) | active: 6.51 µM |  |

| Compound | Potency | activity, negative = toxicity |
| --- | --- | --- |
| Cc1cccc(N2CC(C)Cn3c2nc2c3c(=O)[nH]c(=O)n2C)c1 (configuration not stated) | inconclusive [cytotoxic, partial curve] |  |
| Cc1cc(Cl)ccc1OCC(=O)OCC(=O)N(CC(C)C)c1c(N)n(Cc2ccccc2)c(=O)[nH]c1=O | inactive |  |
| CN(C)c1ccc(/C=C2\CCCCC2=O)cc1 | inactive |  |
| CCc1nc2c(OCCOc3ccc(F)cc3)cccn2c1N(C)C(=O)c1cccs1 | inactive |  |
| COC(=O)c1[nH]c2c(c1C)C(=O)CC(c1cccc(OC)c1)C2 (configuration not stated) | active: 0.92 µM |  |
| C/C(=N\Nc1ccc(F)cc1F)c1ccc(Br)s1 | inconclusive [cytotoxic, single point] |  |
| Cc1cc(C(=O)CN2C(=O)C(=O)N(C3CCCC3)C2=O)c(C)n1CCc1ccccc1 | inactive |  |
| Cc1cccc(NS(=O)(=O)c2ccc(C(=O)NCC(c3ccccc3)N(C)C)cc2)c1C (configuration not stated) | inconclusive [cytotoxic, single point] |  |
| O=c1c2ccccc2nc(/C=C/c2c[nH]c3ccccc23)n1CCO |  | inconclusive: -30.7% [cytotoxic] |
| COc1ccc(N2N=NN(C(C)C)C2=C(Cl)c2nnnn2-c2ccc(OC)cc2)cc1 | inconclusive [cytotoxic, single point] |  |
| CCOc1ccc(-c2[nH]ncc2-c2ccc(OC)c(OC)c2)c(O)c1 | active: 2.24 µM |  |
| Cc1cccc(NC(=O)Oc2ccc(Cl)c3cccnc23)c1 | inactive |  |
| CC(C)NS(=O)(=O)c1ccc(NCCCn2ccnc2)c([N+](=O)[O-])c1 | inconclusive [cytotoxic, single point] |  |
| Cc1oc2c(c1C(=O)N1CCC(C)CC1)C(=O)c1ccccc1C2=O | active: 23.1 µM |  |
| COc1ccc(C[C@H]2c3cc(O)c(OC)cc3CC[N+]2(C)[O-])cc1O (some centres not stated) | inactive |  |
| NC(=S)N=Nc1c(O)n(Cc2ccc(Br)cc2)c2ccccc12 | active: 3.66 µM |  |
| Cc1cc2c(cc1C)CSC(c1ccccc1O)SC2 | inconclusive [cytotoxic, single point] |  |
| C[C@@]12CCC=C[C@H]1[C@H](c1ccc3ccccc3c1Br)N(Cc1ccccc1)C2=O | inconclusive [cytotoxic, single point] |  |
| CCCC(=O)Oc1ccccc1C1SCc2cc(C)c(C)cc2CS1 |  | inconclusive: -30.1% [cytotoxic] |
| Cc1ccc2nc(-c3cccc(-c4cccc(Cl)c4)c3)c(NCc3ccccc3)n2c1 | inconclusive [cytotoxic, partial curve] |  |
| CCOC(=O)CC1=C(C(=O)OCC)C(c2cccnc2)C(C#N)=C(N)O1 (configuration not stated) | inactive |  |
| Cc1ccc(C)n1-n1cnc2sc(-c3ccccc3)cc2c1=O | inconclusive [cytotoxic, single point] |  |
| CCCn1cnnc1CNC(=O)[C@H]1O[C@@H](n2ccc(=O)[nH]c2=O)[C@H](O)[C@@H]1O | inactive |  |
| COc1cc(/C=C(/C#N)c2nc3ccccc3[nH]2)ccc1OCC(=O)Nc1ccccc1C | inactive |  |

Source: PubChem BioAssay AID686971 (National Center for Advancing Translational Sciences (NCATS), 2013)
